Experimental data taken from the supplement of paper PMC10369915.
The list shows a part of the results. Cut-off read from the data, not from the text of the source: active = 3.2 or more and inactive = the rest. Most of these values are background signal.

molecular target: SHP2 C-SH2 domain E139D; assay: enrichment score (SH2-bound / input frequency) (ratio); bacterial display of known human phosphotyrosine sites (pTyr-Var adds point mutants) read by sequencing; higher = stronger binding; tyrosines were phosphorylated by kinases first; details: peptide library: pTyr-Var
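Note: displayed peptides selected on beads carrying the immobilized SH2 domain, with library peptides lacking any tyrosine serving as negative controls.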

Enrichment score, inactive:
KGEDFYCVTRH [FHL1_Y149_C153R] 0.681
PEADKYHLTYA [FGG_Y300_R301H] 0.623
EVNQDYGLDPK [FH_Y110] 0.53
VHNLDYYKETT [FGFR3_Y647_K650E] 0.707
LLARLYRGQAL [FGFR4_Y390_G388R] 0.562
NNIDFYKKTTN [FGFR2_Y657_YF] 0.551
HNLDYYKQTTN [FGFR3_Y648_K650Q] 1.04
VHNLDYFKKTT [FGFR3_Y647_YF] 0.66
NNIDYYKNTTN [FGFR2_Y657_K659N] 0.945
YCVDCYKNFVA [FHL1_Y213] 2.43
INNIDYFKNTT [FGFR2_Y656_K659N_YF] 1.1
FRVDCYKNFVA [FHL1_Y213_C209R_YF] 1.03
HSVVQYVGGVM [FGGY_Y136_L134V] 0.896
HNLDYYKMTTN [FGFR3_Y648_K650M] 0.838
FQGGTYSKACT [FGG_Y380_S384C_YF] 0.58
YQGGTYSKAST [FGG_Y380] 0.569
INNIDYYKKTT [FGFR2_Y656] 0.517
QLAPQYTFTQG [FLNA_Y1761_A1764T_YF] 0.899
KPNMNYDKLSQ [FLI1_Y332_R337Q] 0.651

molecular target: SHP2 C-SH2 domain wild-type; assay: as above; details: peptide library: pTyr-Var

Enrichment score, inactive:
KGEDFYCVTRH [FHL1_Y149_C153R] 1.05
PEADKYHLTYA [FGG_Y300_R301H] 0.601
EVNQDYGLDPK [FH_Y110] 0.673
VHNLDYYKETT [FGFR3_Y647_K650E] 0.618
LLARLYRGQAL [FGFR4_Y390_G388R] 0.558
NNIDFYKKTTN [FGFR2_Y657_YF] 0.503
HNLDYYKQTTN [FGFR3_Y648_K650Q] 0.842
VHNLDYFKKTT [FGFR3_Y647_YF] 0.721
NNIDYYKNTTN [FGFR2_Y657_K659N] 0.58
YCVDCYKNFVA [FHL1_Y213] 2.17
INNIDYFKNTT [FGFR2_Y656_K659N_YF] 0.702
FRVDCYKNFVA [FHL1_Y213_C209R_YF] 1.14
HSVVQYVGGVM [FGGY_Y136_L134V] 1.36
HNLDYYKMTTN [FGFR3_Y648_K650M] 0.927
FQGGTYSKACT [FGG_Y380_S384C_YF] 0.723
YQGGTYSKAST [FGG_Y380] 0.446
INNIDYYKKTT [FGFR2_Y656] 0.63
QLAPQYTFTQG [FLNA_Y1761_A1764T_YF] 0.627
KPNMNYDKLSQ [FLI1_Y332_R337Q] 0.583

molecular target: SHP2 N-SH2 domain L43F; assay: as above; details: peptide library: pTyr-Var

Enrichment score, inactive:
KGEDFYCVTRH [FHL1_Y149_C153R] 0.987
PEADKYHLTYA [FGG_Y300_R301H] 0.639
EVNQDYGLDPK [FH_Y110] 0.425
VHNLDYYKETT [FGFR3_Y647_K650E] 0.621
LLARLYRGQAL [FGFR4_Y390_G388R] 0.556
NNIDFYKKTTN [FGFR2_Y657_YF] 0.381
HNLDYYKQTTN [FGFR3_Y648_K650Q] 0.644
VHNLDYFKKTT [FGFR3_Y647_YF] 0.655
NNIDYYKNTTN [FGFR2_Y657_K659N] 0.805
YCVDCYKNFVA [FHL1_Y213] 2.15
INNIDYFKNTT [FGFR2_Y656_K659N_YF] 0.94
FRVDCYKNFVA [FHL1_Y213_C209R_YF] 1.27
HSVVQYVGGVM [FGGY_Y136_L134V] 1.04
HNLDYYKMTTN [FGFR3_Y648_K650M] 0.951
FQGGTYSKACT [FGG_Y380_S384C_YF] 0.466
YQGGTYSKAST [FGG_Y380] 0.514
INNIDYYKKTT [FGFR2_Y656] 0.722
QLAPQYTFTQG [FLNA_Y1761_A1764T_YF] 0.875
KPNMNYDKLSQ [FLI1_Y332_R337Q] 0.667

molecular target: SHP2 N-SH2 domain T42A; assay: as above; details: peptide library: pTyr-Var

Enrichment score, inactive:
KGEDFYCVTRH [FHL1_Y149_C153R] 0.611
PEADKYHLTYA [FGG_Y300_R301H] 0.349
EVNQDYGLDPK [FH_Y110] 0.613
VHNLDYYKETT [FGFR3_Y647_K650E] 0.595
LLARLYRGQAL [FGFR4_Y390_G388R] 0.541
NNIDFYKKTTN [FGFR2_Y657_YF] 0.369
HNLDYYKQTTN [FGFR3_Y648_K650Q] 0.618
VHNLDYFKKTT [FGFR3_Y647_YF] 0.687
NNIDYYKNTTN [FGFR2_Y657_K659N] 0.619
YCVDCYKNFVA [FHL1_Y213] 1.94
INNIDYFKNTT [FGFR2_Y656_K659N_YF] 0.819
FRVDCYKNFVA [FHL1_Y213_C209R_YF] 0.94
HSVVQYVGGVM [FGGY_Y136_L134V] 1.09
HNLDYYKMTTN [FGFR3_Y648_K650M] 0.672
FQGGTYSKACT [FGG_Y380_S384C_YF] 0.499
YQGGTYSKAST [FGG_Y380] 0.377
INNIDYYKKTT [FGFR2_Y656] 0.415
QLAPQYTFTQG [FLNA_Y1761_A1764T_YF] 0.734
KPNMNYDKLSQ [FLI1_Y332_R337Q] 0.551

molecular target: SHP2 N-SH2 domain T52S; assay: as above; details: peptide library: pTyr-Var

Enrichment score, inactive:
KGEDFYCVTRH [FHL1_Y149_C153R] 0.682
PEADKYHLTYA [FGG_Y300_R301H] 0.543
EVNQDYGLDPK [FH_Y110] 0.467
VHNLDYYKETT [FGFR3_Y647_K650E] 0.671
LLARLYRGQAL [FGFR4_Y390_G388R] 0.712
NNIDFYKKTTN [FGFR2_Y657_YF] 0.484
HNLDYYKQTTN [FGFR3_Y648_K650Q] 0.697
VHNLDYFKKTT [FGFR3_Y647_YF] 0.639
NNIDYYKNTTN [FGFR2_Y657_K659N] 0.764
YCVDCYKNFVA [FHL1_Y213] 2.25
INNIDYFKNTT [FGFR2_Y656_K659N_YF] 1.03
FRVDCYKNFVA [FHL1_Y213_C209R_YF] 1.05
HSVVQYVGGVM [FGGY_Y136_L134V] 0.819
HNLDYYKMTTN [FGFR3_Y648_K650M] 0.848
FQGGTYSKACT [FGG_Y380_S384C_YF] 0.534
YQGGTYSKAST [FGG_Y380] 0.592
INNIDYYKKTT [FGFR2_Y656] 0.597
QLAPQYTFTQG [FLNA_Y1761_A1764T_YF] 0.586
KPNMNYDKLSQ [FLI1_Y332_R337Q] 0.581

molecular target: SHP2 N-SH2 domain wild-type; assay: as above; details: peptide library: pTyr-Var

Enrichment score, inactive:
KGEDFYCVTRH [FHL1_Y149_C153R] 0.985
PEADKYHLTYA [FGG_Y300_R301H] 0.686
EVNQDYGLDPK [FH_Y110] 0.633
VHNLDYYKETT [FGFR3_Y647_K650E] 0.674
LLARLYRGQAL [FGFR4_Y390_G388R] 0.456
NNIDFYKKTTN [FGFR2_Y657_YF] 0.423
HNLDYYKQTTN [FGFR3_Y648_K650Q] 0.741
VHNLDYFKKTT [FGFR3_Y647_YF] 0.623
NNIDYYKNTTN [FGFR2_Y657_K659N] 0.829
YCVDCYKNFVA [FHL1_Y213] 2.15
INNIDYFKNTT [FGFR2_Y656_K659N_YF] 0.836
FRVDCYKNFVA [FHL1_Y213_C209R_YF] 1.06
HSVVQYVGGVM [FGGY_Y136_L134V] 1.1
HNLDYYKMTTN [FGFR3_Y648_K650M] 0.709
FQGGTYSKACT [FGG_Y380_S384C_YF] 0.538
YQGGTYSKAST [FGG_Y380] 0.627
INNIDYYKKTT [FGFR2_Y656] 0.372
QLAPQYTFTQG [FLNA_Y1761_A1764T_YF] 0.64
KPNMNYDKLSQ [FLI1_Y332_R337Q] 0.694
